# Assay results published in the RNAGym collection of RNA variant scans (doi:10.7554/elife.90254).
# The source gives no read counts; variants with many changes may rest on few reads.
# B1: LINE1-mini (parent)
# chain: GGCAGAGCUCAACACAGCGUGGCAAAGUGGCUGUGGCUAGACUGCC
# Variants of: B1
# Test: self-cleavage, relative activity (ratio to wild type); higher = more cleavage; in vitro, sequencing; the parent is a self-cleaving ribozyme
row,Variant,self-cleavage
1,G2U C10U A26G,0.01
2,C3A C15A G21U A24G C42U,0.3
3,G2U C10G A16G G27C,0.01
4,C3A C15U C18G,0.14
5,G2U G7A A16G G19U,0.06
6,C3A A11C G22A,0.14
7,G2U G5U G7U C23U,0.03
8,G2U G5A A16U C31G G36C,0
9,G2U G19A G44U,0.03
10,G2U G5U C15A C18U G22A U28G,0.01
11,G2U U28G G36C,0
12,G2U G17C C46A,0.02
13,G2U C8U U32A G33A G44A,0.09
14,C3A C18U U32A U43G,0.07
15,G2U C8U C15G,0.01
16,G2U C8U C10U G35C A39U,0
17,C3A A11C C45A,0.03
18,G2U G19C U32G G44A,0.02
19,G2U G7A C15U U20A A24C A39C,0.05
20,G2U C13U G33U C42G,0.08
21,C3A A11U C13A U43A,0.02

row,Variant,self-cleavage
1,C3A A12G C31A G35C U38G,0.08
2,C3A A16C G17A G33U C42U,0.06
3,C3A C13G A26U C31G G40C G44U,0
4,G2U C18U C42G,0.05
5,G2U G36A C42G G44A,0.01
6,C3A C13U A26C C42G G44C C46U,0.12
7,G2U G17C A24U,0.03
8,C3A C31U C37A,0.1
9,C3A A4C G33A,0.67
10,C3A A14G C46U,0.46
11,G2U G5U C10A G35U G36C,0.02
12,C3A A4G C46U,0.12
13,G2U U9A G21C U28G,0.01
14,G2U C13U A14C C37A,0.1
15,C3A C10U G29U C31A C42A,0.04
16,C3A C15U U20G G21A A25C,0.06
17,C3A C8G G30U,0.13
18,C3A A24G G33C,0.08
19,G2U C10A A25U G29U G44C,0.01
20,G2U C23U U28G,0.04
21,G2U G5U G7A C13A G27U G29C C31A,0.11

row,Variant,self-cleavage
1,C3A C8A C15G C46A,0.57
2,G2U G35A A39C C46U,0.05
3,G2U G5A U38G,0.06
4,G2U G36U C45G,0.15
5,C3A A11G A24C C46G,0.03
6,C3A C23U G29C U38A,0.02
7,C3A C10U U28C G40A,0.06
8,C3A C8U A16U G21C G27U,0.6
9,C3A C10G G22C,0.04
10,G2U U38C C42G,0.04
11,C3A A4C A12C G17C C45U,0.05
12,C3A A16C G30C,0.02
13,C3A A14C C18A,0.1
14,G2U G5A U34G,0.02
15,G2U G7U U32G A41G,0.11
16,G2U U9C G17A C37U U38A C45A,0
17,G2U C13U G17C,0.02
18,G2U C18G G27C C45A,0.46
19,C3A A4G G21U C37G G40C,0.29
20,C3A A12U C23U G35U,0.05
21,G2U G5A C10G G30C G33A C37A A39G,0.01

row,Variant,self-cleavage
1,C3A C31U G33C U34A,0.04
2,G2U U20G C46G,0.21
3,C3A A6G A14C G21A G40A,0.03
4,C3A A14U A16C,0.04
5,C3A A4C A12G A24C G35A C37U A41C,0.06
6,G2U G19C G21U G22A,0.33
7,C3A A6C G44U,2.52
8,C3A C10A G19U U38G,0.04
9,C3A C18U G19U G30U,0.07
10,G2U C10U C15A U20C G21U A25U,0.02
11,C3A C8G U43C,0
12,G2U G22A G33C G40A,0.02
13,G2U C10A A11U,0.02
14,C3A C8U U32A,0.05
15,G2U G27U C37U C42U C46U,0.14
16,C3A A16G G21U G30U,0.03
17,C3A C10A U43C C45G,0.01
18,G2U U20A U32C G35U,0.02
19,G2U G7U U20G,0.02
20,C3A C10A C46A,0.04
